Data as given in US6191113A, “Peptide for inhibiting growth of smooth muscle cells” (Juridical Foundation The Chemo-Sero-Therapeutic Research …, priority 1995, dated 2001).
Entries after “also recorded” stand apart in the source; their conditions may differ. Not every detail of the peptide structures is certain; ends, links or a residue may be inferred. Some entries repeat one wording, which the source may state once for all of them. No end group written: not given here.

Legend:
[1] = system: Vascular smooth muscle cells of blood vessel from human aorta; experiment: Growth inhibition of smooth muscle cells by various peptides at 20 μM (Humedia-SG); type: cell-based; conditions: 20 μM in Humedia-SG; for activity to inhibit growth of smooth muscle cells (cell number per well): counted ten days after inoculation, 4 wells
[2] = system: Vascular smooth muscle cells from human aorta; experiment: Growth inhibition of smooth muscle cells by C-terminal region peptides of human TFPI (cell count, DME); type: cell-based; conditions: 20 μg/ml in DME, counted nine days after inoculation, 3 wells, Student's t-test

Sequence	activity to inhibit growth of smooth muscle cells (cell number per well) [1]	activity to inhibit growth of smooth muscle cells (cell number per well vs control) [2]	reduction of activity to inhibit growth of smooth muscle cells compared to Peptide 1 ([1]; ten days after inoculation)
IFVKNMAYEEKTKRKRKKQRVKI [Peptide 4, IFVKNMAYEEKTKRKRKKORVKI]	no activity to inhibit growth of smooth muscle cells	–	–
IKTKRKRKKQRVKIAYEEI [Peptide 15, IKTKRKRKKQRVKIAYEEI]	almost lost the activity	–	–
IKTKRKRKKQRVKIAYEEIF [Peptide 16]	maintains strong activity to inhibit growth of smooth muscle cells	–	–
IKTKRKRKKQRVKIAYEEIFVKNM [Peptide 20]	enhanced the activity to inhibit growth of smooth muscle cells as compared to Peptide 1	–	–
KIAYEEIFVKNM [Peptide 3, KIAYEEIFVKNM]	–	no activity to inhibit growth of smooth muscle cells	–
KTKRKRKKQRV [Peptide 2, KTKRKRKKQRV]	–	no activity to inhibit growth of smooth muscle cells	–
KTKRKRKKQRVKIAYEEIFVKNM [Peptide 1]	strongly inhibited growth of smooth muscle cells	significant decrease in cell number	–
KTKRKRKKQRVKIAYEEIFVQNM [Peptide 5]	enhanced the activity of Peptide 1; also recorded: more excellent activity to inhibit growth of smooth muscle cells than that of Peptide 1	–	–
KTKRKRKKQRVKIAYEELLLKNL [Peptide 6]	still exhibited a strong activity to inhibit growth of smooth muscle cells	–	about 1/3
KTKRKRKKQRVKIAYQQIFVKNM [Peptide 8, KTKRKRKKQRVKIAYOOIFVKNM]	activity to inhibit growth of smooth muscle cells as in Peptide 1 was exhibited	–	–
KTKRKRKKQRVKIIFVKNM [Peptide 7, KTKRKRKKQRVKIIFVKNM]	activity to inhibit growth of smooth muscle cells as in Peptide 1 was exhibited	–	–
KTKRKRKKQRVKISFEEIFVKNM [Peptide 9]	activity to inhibit growth of smooth muscle cells as in Peptide 1 was exhibited	–	–
LYKKIIKKLLESIAYEEIFVKNM [Peptide 10]	extremely lowers the activity to inhibit growth of smooth muscle cells as compared to Peptide 1, the statistically significant activity still remained	–	–
